# Measurements from PubChem BioAssay (NCATS).
# The inconclusive results got no clear call from the source; some entries with a clear call stand among them for comparison. For part of these data: A potency beside an inconclusive call is a rough fit, not a confirmed value. Calls of active or inactive are those of the source. Calls come from the whole dose curve; as a rule, active = well fitted curve in the direction sought with a large enough effect; inconclusive = small, poorly fitted or top-dose-only effect, or another doubt; inactive = no such curve, though single readings can be large; an effect the other way counts as inactive or inconclusive. Numbered stars: 1 amine (or outer) side, 2 acyl side, 3 side chain; on linkers, the order of the positions; unused ones are H or OH. Square brackets hold non-standard residues; d marks the D form. Peptide text beside a SMILES is read from it. X3 = CCCCCCCCCC(=O)[C@H](C(=O)[*:2])[C@@H]1CNC(=O)[C@@H](N[*:1])CS1
# What was measured:
# [1] = system: Zika virus NS2B-NS3 protease (linked construct); assay: Primary screen NINDS Rhodamine qHTS for Zika virus inhibitors (AID 1347160); conditions: purified NS2B-NS3 protease, Rhodamine110 substrate fluorescence; series mostly up to 112 µM; note: nearly all actives have a fitted effect of over 55% in size; note: potency is the fitted concentration of half-maximal effect; for activity change, negative = inhibition: % is set by controls: 0 for no effect and ±100 for the full control effect
# How it was run: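 Purified NS2B-NS3 protease with the NS2B hydrophilic domain joined by a flexible linker (25 nM) in 10 mM Tris-HCl pH 8.0, 0.01% Tween 20, preincubated 15 min at RT with compound; Rhodamine110 peptide substrate 1.5 µM; fluorescence change over 15 min; 4-parameter Hill fit.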
# [2] = UWB1.289 Cancer Cell Toxicity qHTS against the NCATS CANVASS Library (AID 1347347); conditions: UWB1.289 viability, CellTiter-Glo luminescence, 72 h; series mostly up to 38.3 µM; note: % is set by controls: 0 for no effect and ±100 for the full control effect; nearly all actives have a fitted effect of over 60% in size
# How it was run: (§1)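 Cells were seeded at 1000 per well, allowed 4 h at 37 degrees C/5% CO2, then pin-treated with an 11-point compound series. After 72 h, viability was read as CellTiter-Glo luminescence following 15min at room temperature.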
# [3] = Panc-1005 Cancer Cell Toxicity qHTS against the NCATS CANVASS Library (AID 1347349); conditions: Panc-1005 viability, CellTiter-Glo luminescence, 72 h; series mostly up to 38.3 µM; note: % is set by controls: 0 for no effect and ±100 for the full control effect; nearly all actives have a fitted effect of over 60% in size
# How it was run: as §1
# [4] = HEK-293 Cancer Cell Toxicity qHTS against the NCATS CANVASS Library (AID 1347355); conditions: HEK-293 viability, CellTiter-Glo luminescence, 72 h; series mostly up to 46.1 µM; note: nearly all actives have a fitted effect of over 65% in size
# How it was run: (§2)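 Luminescent ATP read-out (CellTiter-Glo, 15min at room temperature) measures survival after cells face an 11-point compound series for 72 hours at 37 degrees C/5% CO2.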
# [5] = qHTS for Antimalaria activity screened against the NCATS CANVASS Library (AID 1347380); note: nearly all actives have a fitted effect of over 40% in size; note: potency is the fitted concentration of half-maximal effect;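 for activity change, negative = inhibition: Plasmodium falciparum strain Dd2 asexual parasites grown in red blood cells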; conditions: P. falciparum Dd2 growth, SYBR Green fluorescence, 72 h; series mostly up to 28.7 µM
# How it was run: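 Dd2 strain, infected erythrocytes 2.5% Hct final / 0.3% parasitemia. 11-pt qHTS titration, 72 h, 37C, 5% O2, 5% CO2. Lysis buffer + SYBR Green, 18 h, fluorescence 485/535 nm.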
# [6] = qHTS for Activators of p53 Stress Response Pathway screened against the NCATS CANVASS Library (AID 1347388); conditions: p53RE-bla HCT-116, beta-lactamase reporter, 16 h; series mostly up to 46.1 µM; note: 0% is about no effect
# How it was run: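 p53RE-bla HCT-116 cells (4000/well) were pre-incubated for 5 h, then treated with compound (11 points) for 16 h at 37C. After 2 h with CCF4, the 460/530 nm ratio gave reporter activation; CellTiter-Glo measured viability.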
# [7] = qHTS for inhibitors of ER calcium dysfunction: SERCaMP assay screened against the NCATS CANVASS Library (AID 1347393); conditions: SH-SY5Y GLuc-SERCaMP secretion, thapsigargin, luminescence; activity change, negative = inhibition: at 76.6 µM (top of the series) unless noted; note: nearly all actives have a fitted effect of over 40% in size; note: potency is the fitted concentration of half-maximal effect;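 for activity change, negative = inhibition: % is set by controls: 0 for no effect and ±100 for the full control effect; lower secreted reporter signal means inhibitor of ER calcium depletion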
# How it was run: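 SH-SY5Y GLuc-SERCaMP, 1000 cells/well, 4 h attach; cpd 16 h, 37C/5% CO2; thapsigargin (added as 6x 600 nM) 4 h; coelenterazine; luminescence. Reduced reporter release = ER Ca stabilization.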
# [8] = SW1088 Cancer Cell Toxicity qHTS against the NCATS CANVASS Library (AID 1347350); conditions: SW1088 viability, CellTiter-Glo luminescence, 72 h; series mostly up to 38.3 µM; note: nearly all actives have a fitted effect of over 75% in size; note: potency is the fitted concentration of half-maximal effect
# How it was run: as §1
# [9] = KB-8-5-11 Cancer Cell Toxicity qHTS against the NCATS CANVASS Library (AID 1347364); conditions: KB-8-5-11 MDR cells viability, CellTiter-Glo, 72 h; activity change, negative = toxicity: at 46.1 µM (top of the series); series mostly up to 46.1 µM; note: nearly all actives have a fitted effect of over 75% in size; note: potency is the fitted concentration of half-maximal effect; for activity change, negative = toxicity: % is set by controls: 0 for no effect and ±100 for the full control effect
# How it was run: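 Plate 500 KB-8-5-11 cells per well in DMEM + 10% FBS, add compounds by pin transfer, incubate 72 hr at 37C. Add CellTiter-Glo, wait 10 minutes at room temperature, read luminescence.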
# [10] = U-118MG Cancer Cell Toxicity qHTS against the NCATS CANVASS Library (AID 1347351); conditions: U-118MG viability, CellTiter-Glo luminescence, 72 h; series mostly up to 38.3 µM; note: potency is the fitted concentration of half-maximal effect
# How it was run: as §1
# [11] = qHTS for Hypoxia signaling pathway (HIF-1) antagonists against the NCATS CANVASS Library (AID 1347374); conditions: HRE-bla ME-180 cells, HIF-1 beta-lactamase reporter, CoCl2; series mostly up to 38.3 µM; note: potency is the fitted concentration of half-maximal effect; nearly all actives have a fitted effect of over 60% in size
# How it was run: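 HRE-bla ME-180 cells in medium with 0.5% dialyzed FBS received compounds (11-point series) plus CoCl2 (60 uM addition stock) for 17 hrs at 37C. Beta-lactamase activity read with CCF4 (405 nm ex, 460/530 nm em); CellTiter-Glo viability measured in same wells.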
# [12] = Viability qHTS for inhibitors of the SERCaMP assay screened against the NCATS CANVASS Library (AID 1347400); conditions: SH-SY5Y SERCaMP cells viability, CellTiter-Glo, 48 h; series mostly up to 92.2 µM; note: potency is the fitted concentration of half-maximal effect; nearly all actives have a fitted effect of over 70% in size
# How it was run: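 SH-SY5Y SERCaMP MJH297 cells, 1000/well; 4 h settle, 37C/5% CO2; pin-transferred cpds; 48 h; CellTiter-Glo lum. Pos ctrl bortezomib 0.0001 - 4.6 uM.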
# [13] = UWB1.289-WTBRCA1 Cancer Cell Toxicity qHTS against the NCATS CANVASS Library (AID 1347354); conditions: UWB1.289-WTBRCA1 viability, CellTiter-Glo luminescence, 72 h; series mostly up to 38.3 µM
# How it was run: as §2
# [14] = qHTS for activators of Nrf2/ARE signaling pathway screened against the NCATS CANVASS Library (AID 1347391); conditions: ARE-bla HepG2, beta-lactamase reporter, 16 h; series mostly up to 46.1 µM; note: potency is the fitted concentration of half-maximal effect; nearly all actives have a fitted effect of over 60% in size
# How it was run: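 Plate ARE-bla HepG2 cells at 2000/well and let them settle 5 h. Pin-transfer compounds in DMSO, incubate 16 h at 37C. Load CCF4 for 2 h at room temperature and read blue/green fluorescence.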
# [15] = qHTS for inhibitors of Wild type Zika virus screened against the NCATS CANVASS Library (AID 1347396); conditions: Vero cells, Zika virus CPE, CellTiter-Glo, 72 h; series mostly up to 45.9 µM; note: potency is the fitted concentration of half-maximal effect
# How it was run: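 Vero 766 (African green monkey) cells, 1000 per well, attached overnight, then compounds were added in an 11-point series before wild-type Zika virus infection. After 72 h at 37C, cell viability was read as CellTiter Glo luminescence.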
# Tags give direction and shape of the fitted curve.
structure (smiles),measurement,setting,value
COc1ccc([C@@H]2c3cc(OC)c(OC)cc3C(=O)[C@H](C)C2C)cc1OC (some centres undefined),Potency,[1],inactive
same,"activity change, negative = cytotoxicity",[2],inactive: 3.43% [at 7.64 µM]
same,"activity change, negative = cytotoxicity",[3],inactive: 1.86% [at 7.64 µM]
same,outcome,[4],inactive [at 9.19 µM]
same,Potency,[5],"inconclusive: 0.0006 µM [cytotoxic, full curve]"
same,activation,[6],inactive: 4.12% [at 9.19 µM]
same,"activity change, negative = inhibition",[7],inconclusive: -41.7% [inhibitor] [at 15.3 µM]
C[C@@]12C[C@@H](C[C@@H]3C(=O)O[C@@H](c4ccoc4)[C@H](OC(=O)c4ccccc4)[C@@H]31)OC2=O,Potency,[1],"inconclusive: 34.9 µM [inhibitor, partial curve, poor fit]"
same,Potency,[8],inactive
same,Potency,[9],inactive
same,Potency,[5],inactive
"CC[C@@H](C)[C@H]1NC(=O)C(CC(C)C)NC(=O)[C@@H](CC(C)C)NC(=O)[C@H](Cc2c[nH]c3ccccc23)NC(=O)CNC(=O)[C@@H](CC(N)=O)NC1=O (stereo partly drawn) (HELM PEPTIDE1{G.W.[dL].[CC(C)CC(N[*:1])C(=O)[*:2]].[dI].[dN]}$PEPTIDE1,PEPTIDE1,1:R1-6:R2$$$V2.0)",Potency,[1],"inconclusive: 15.6 µM [inhibitor, partial curve, poor fit]"
same,Potency,[10],"inconclusive: 16.8 µM [cytotoxic, partial curve]"
same,Potency,[9],"inconclusive: 11.8 µM [cytotoxic, partial curve]"
same,Potency,[11],"inconclusive: 29.8 µM [inhibitor, single point]"
same,Potency,[5],"inconclusive: 18.8 µM [cytotoxic, single point]"
same,Potency,[12],"inconclusive: 38.1 µM [cytotoxic, single point]"
CCCCCCCCCC(=O)[C@@H]1C(=O)N[C@@H](CC(C)C)C(=O)N[C@H](C)C(=O)N2CCC[C@H]2C(=O)N[C@@H](C(C)C)C(=O)N[C@H]2CS[C@H]1CNC2=O (cyclo(L[dA]PV[X3])),Potency,[1],active: 4.4 µM
same,Potency,[8],"inconclusive: 26.6 µM [cytotoxic, partial curve, poor fit]"
same,Potency,[13],inactive
same,Potency,[5],active: 0.0033 µM
same,Potency,[14],"inconclusive: 20.9 µM [activator, single point]"
same,Potency,[7],"inconclusive: 34.3 µM [inhibitor, partial curve]"
same,Potency,[15],"inconclusive: 36.9 µM [inhibitor, single point]"
